Data published in patent publication US7777042B2, “N-sulfonylpipecolic acid derivative FKBP binding composition and pharmaceutical use thereof” (Aventis Pharmaceuticals Inc., priority 2004, dated 2010).

Legend:
[1] = molecular target: T1, human FK506 binding protein FKBP12 (Homo sapiens, UniProt P62942); assay: Binding affinity to FK506 binding protein ([3H]FK506 scintillation proximity assay with His6-FKBP12); conditions: His6-FKBP12, 3.5 nM [3H]FK506; IC50 converted to Ki by Cheng-Prusoff; read-out: FKBP Ki
T1 construct: made in house
Method: Measurement of binding affinity to FK506 binding proteins:
A construct containing the FKBP coding sequence (NCBI Locus BC005147, as shown in FIG. 2) is expressed in frame with an eight amino acid tag ((histidine)-6-aspartate-tyrosine) on the N-terminus to yield His6-FKBP12. Purified His6-FKBP12 protein is used for measurement of binding affinity in 96 well microtiter format. All wells contain 3.5 nM [^3H]FK506, 50 mM Hepes-NaOH (pH 7.7), 0.05% bovine serum albumin, 90 μg yttrium silicate copper chelate scintillation proximity beads (Amersham®), and 12 ng His6-FKBP12 in 200 μl final volume. Total and non-specific binding is defined as that observed in the absence and presence of 1 μM unlabeled FK506. Compounds of the present invention were evaluated for FKBP target affinity by including various concentrations of the unlabeled test compounds in the incubation mixture. […] The reaction was initiated by adding the His6-FKBP12, then the plates were sealed and placed on a laboratory shaker for 1 hour at room temperature. Bound radioactivity was determined using a plate-based scintillation counter (TopCount®, Packard®). Inhibition constants (IC50 values) were obtained using non-linear regression analysis and converted to Ki values using the Cheng-Prusoff correction procedure.
The binding of the compounds of the present invention to FKBP12 is exemplified by the Ki values of the following Table 1.

[2] = test system: FKBP12-mediated signaling in Jurkat cells containing IFNγ-Luc; assay: Jurkat IFNγ-Luc reporter: intrinsic inhibition of PMA/A23187-mediated increases in reporter activity; format: cell-based; conditions: Homo sapiens, PMA 10 ng/ml + A23187 1.0 μM, read-out: EC50 (half-maximal inhibition of PMA/A23187-mediated increases in reporter activity)

T1 sequence (P62942 whole entry): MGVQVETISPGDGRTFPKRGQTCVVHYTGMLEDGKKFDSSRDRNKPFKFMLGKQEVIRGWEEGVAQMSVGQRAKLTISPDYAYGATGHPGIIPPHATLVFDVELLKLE

| Structure (SMILES) | Ki [1] [nM] | EC50 [2] [nM] |
| --- | --- | --- |
| CC(C)Oc1ccc(C[C@H](NC(=O)[C@@H]2CCCCN2S(=O)(=O)c2cccc(F)c2)C(=O)NC2CC(C)(C)NC(C)(C)C2)cc1 [drawing 62] | 4.93 | – |
| NC(=O)[C@H](Cc1ccccc1)NC(=O)[C@@H]1CCCCN1S(=O)(=O)c1cccc(O)c1 | 556 | – |
| C=CCOc1ccc(C[C@H](NC(=O)[C@@H]2CCCCN2S(=O)(=O)c2cccc(C(F)(F)F)c2)C(=O)NC2CCCCC2)cc1 | 5.08 | – |
| O=C(N[C@@H](Cc1ccc(OCc2ccccc2)cc1)c1nc2ccccc2[nH]1)[C@@H]1CCCCN1S(=O)(=O)c1cccc(C(F)(F)F)c1 | 88.1 | – |
| O=C(Nc1ccc(N2CCOCC2)cc1)[C@H](Cc1ccc(C(F)(F)F)cc1)NC(=O)[C@@H]1CCCCN1S(=O)(=O)c1cccc(C(F)(F)F)c1 | 2.16 | – |
| COc1ccc(C[C@H](NC(=O)[C@@H]2CCCCN2S(=O)(=O)c2cccc(C(F)(F)F)c2)C(=O)Nc2ccc(N3CCOCC3)cc2)cc1 [drawing 40] | 0.24 | – |
| O=C(NCCc1c[nH]c2ccccc12)[C@@H]1CCCCN1S(=O)(=O)c1ccccc1 | > 100000 | – |
| COc1ccc(C[C@H](NC(=O)[C@@H]2CCCCN2S(=O)(=O)c2cccc(F)c2)C(=O)NC2CCOCC2)cc1 | 281 | – |
| NC(=O)[C@H](Cc1c[nH]c2ccccc12)NC(=O)[C@@H]1CCCCN1S(=O)(=O)c1cc(Br)c(Br)s1 | 79 | – |
| CC(C)(C)NC(=O)[C@H](Cc1c[nH]c2ccccc12)NC(=O)[C@@H]1CCCCN1S(=O)(=O)c1ccccc1 | 151 | – |
| NC(=O)[C@H](Cc1c[nH]c2ccccc12)NC(=O)[C@@H]1CCCCN1S(=O)(=O)c1ccccc1 | 191 | – |
| NC(=O)[C@@H](Cc1c[nH]c2ccccc12)NC(=O)[C@@H]1CCCCN1S(=O)(=O)c1ccccc1 | 26400 | – |
| Cc1ccc(C[C@H](NC(=O)[C@@H]2CCCCN2S(=O)(=O)c2ccccc2)C(=O)NC2CCCCC2)cc1 [drawing 26] | 42.3 | – |
| C=CC[C@@H]1/C=C(\C)C[C@H](C)C[C@H](OC)[C@H]2O[C@@](O)(C(=O)C(=O)N3CCCC[C@H]3C(=O)O[C@H](/C(C)=C/[C@@H]3CC[C@@H](O)[C@H](OC)C3)[C@H](C)[C@@H](O)CC1=O)[C@H](C)C[C@@H]2OC [FK506] | – | 0.7 |
| CC(O)c1ccc(C[C@H](NC(=O)[C@@H]2CCCCN2S(=O)(=O)c2cccc(C(F)(F)F)c2)C(=O)Nc2ccc(N(C)C)cc2)cc1 (some centres unmarked) | 18.1 | – |
| COc1ccc(C[C@H](NC(=O)[C@@H]2CCCCN2S(=O)(=O)c2cccc(C(F)(F)F)c2)C(=O)NCCN2CCNCC2)cc1 | 3.62 | – |
| CC(C)c1ccc(C[C@H](NC(=O)[C@@H]2CCCCN2S(=O)(=O)c2ccccc2)C(=O)NCC(C)(C)CO)cc1 | 1.91 | – |
| COc1cccc(S(=O)(=O)N2CCCC[C@H]2C(=O)N[C@@H](Cc2c[nH]c3ccccc23)C(=O)Nc2ccc3ccccc3c2)c1 | 27.1 | – |
| CC(O)c1ccc(C[C@H](NC(=O)[C@@H]2CCCCN2S(=O)(=O)c2cccc(C(F)(F)F)c2)C(=O)Nc2ccc(N3CCOCC3)cc2)cc1 (some centres unmarked) [drawing 42] | 2.59 | – |
| CCOc1ccc(NC(=O)[C@H](Cc2ccc(C(C)O)cc2)NC(=O)[C@@H]2CCCCN2S(=O)(=O)c2cccc(C(F)(F)F)c2)cc1 (some centres unmarked) | 5.47 | – |
| CN(C)CCCCNC(=O)[C@H](Cc1ccc(F)cc1)NC(=O)[C@@H]1CCCCN1S(=O)(=O)c1cccc(F)c1 | 19.8 | – |
| Cc1ccccc1C[C@H](NC(=O)[C@@H]1CCCCN1S(=O)(=O)c1ccccc1)C(N)=O | 456 | – |

| Structure (SMILES) | Ki [1] [nM] | EC50 [2] [nM] |
| --- | --- | --- |
| C=CCOc1ccc(C[C@H](NC(=O)[C@@H]2CCCCN2S(=O)(=O)c2ccccc2)C(=O)NC2CCCCC2)cc1 [drawing 53] | 12.8 | – |
| O=C(N[C@@H](Cc1ccccc1)c1nc2ccccc2[nH]1)[C@@H]1CCCCN1S(=O)(=O)c1cccc(C(F)(F)F)c1 | 97.1 | – |
| COc1ccc(C[C@H](NC(=O)[C@@H]2CCCCN2S(=O)(=O)c2cccc(C(F)(F)F)c2)C(=O)Nc2ccc(N(C)C)cc2)cc1 (single isomer, unassigned) | 7.25 | – |
| CCCOc1cccc(S(=O)(=O)N2CCCC[C@H]2C(=O)N[C@@H](Cc2ccccc2)C(N)=O)c1 | 331 | – |
| NC(=O)[C@H](Cc1c[nH]c2ccccc12)NC(=O)[C@@H]1CCCCN1S(=O)(=O)/C=C/c1ccccc1 | 842 | – |
| CCOc1ccc(NC(=O)[C@H](Cc2ccc(C(C)=O)cc2)NC(=O)[C@@H]2CCCCN2S(=O)(=O)c2cccc(C(F)(F)F)c2)cc1 | 2.54 | – |
| NC(=O)[C@H](Cc1ccccc1)NC(=O)[C@@H]1CCCCN1S(=O)(=O)c1ccccc1 | 517 | – |
| Cc1ccc(C[C@H](NC(=O)[C@@H]2CCCCN2S(=O)(=O)c2cccc(C(F)(F)F)c2)C(=O)NC2CCCCC2)cc1 [drawing 54] | 30.1 | – |
| COc1ccc(C[C@H](NC(=O)[C@@H]2CCCCN2S(=O)(=O)c2cccc(C(F)(F)F)c2)C(=O)NC2CCOCC2)cc1OC [drawing 35] | 2.91 | – |
| CN(C)CCOc1ccc(C[C@H](NC(=O)[C@@H]2CCCCN2S(=O)(=O)c2cccc(C(F)(F)F)c2)C(=O)NC2CCCCC2)cc1 | 4.72 | – |
| COc1ccc(C[C@H](NC(=O)[C@@H]2CCCCN2S(=O)(=O)c2cccc(C(F)(F)F)c2)C(=O)NC(C)(C)CO)cc1 | 9.13 | – |
| COc1ccc(C[C@H](NC(=O)[C@@H]2CCCCN2S(=O)(=O)c2cccc(C(F)(F)F)c2)C(=O)NC2CCOCC2)cc1 [drawing 39] | 11.3 | – |
| CC(=O)c1ccc(C[C@H](NC(=O)[C@@H]2CCCCN2S(=O)(=O)c2cccc(C(F)(F)F)c2)C(=O)Nc2ccc(N3CCOCC3)cc2)cc1 [drawing 51] | 8.47 | – |
| CC(C)Oc1ccc(C[C@H](NC(=O)[C@@H]2CCCCN2S(=O)(=O)c2cccc(C(F)(F)F)c2)C(=O)NC2CCOCC2)cc1 [drawing 59] | 2.7 | – |
| COC[C@H](C)NC(=O)C(Cc1ccc(OCCCF)cc1)NC(=O)[C@@H]1CCCCN1S(=O)(=O)c1cccc(F)c1 (some centres unmarked) | 40.2 | – |
| CN(C)C(=O)[C@H](Cc1c[nH]c2ccccc12)NC(=O)[C@@H]1CCCCN1S(=O)(=O)c1ccccc1 | 3870 | – |
| COCCCOc1ccc(C[C@H](NC(=O)[C@@H]2CCCCN2S(=O)(=O)c2cccc(F)c2)C(=O)NC2CCOCC2)cc1 | 3.84 | – |
| C[C@](Cc1ccc(OC2CCCC2)cc1)(NC(=O)[C@@H]1CCCCN1S(=O)(=O)c1cccc(F)c1)C(=O)NC1CCOCC1 | 22.2 | – |
| Cc1ccc(C[C@H](NC(=O)[C@@H]2CCCCN2S(=O)(=O)c2cccc(C(F)(F)F)c2)C(=O)NCCCCN)cc1 [drawing 37] | 1.55 | – |
| CNC(=O)[C@H](Cc1c[nH]c2ccccc12)NC(=O)[C@@H]1CCCCN1S(=O)(=O)c1cc(Cl)cc(Cl)c1 | 25.7 | – |
| CC1(C)CC(NC(=O)[C@H](Cc2ccc(OCCCF)cc2)NC(=O)[C@@H]2CCCCN2S(=O)(=O)c2cccc(F)c2)CC(C)(C)N1 [drawing 36] | 4.54 | – |
| COc1ccc(C[C@H](NC(=O)[C@@H]2CCCCN2S(=O)(=O)c2ccccc2)C(=O)NCCC(C)(C)C)cc1 [drawing 27] | 2.16 | – |
